# PubChem BioAssay AID256 (DTP/NCI, 2004)
# “And” between values parts separate entries of the source, which are not always exact repeats. Equal values may be shown once. This continues a long series; more values of the same kind are listed elsewhere. Inconclusive results and toxic doses are left out.
# Tested on: CD2F1 mice, L1210 leukemia ip, survival T/C
# Experiment: NCI In Vivo Anticancer Drug Screen. Data for tumor model L1210 Leukemia (intraperitoneal) in CD2F1 (CDF1) mice
# Details: endpoint: mean survival time, higher = longer survival
# How it was run: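 Antitumor effect is scored in animals hosting a serially transplanted tumor. Values compare compound-dosed animals against vehicle-only controls as a simple quotient.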
smiles,measurement,setting,value
Nc1ncn(C2OC(CO)C(O)C2O)c(=O)n1 (stereo not given),T/C,"dose: 0.19 mg/kg/injection, schedule: Q01DX009 (ip), vehicle: saline",108 % of control
same,T/C,"dose: 0.38 mg/kg/injection, schedule: Q01DX005 (ip), vehicle: water",114 % of control
same,T/C,"dose: 0.38 mg/kg/injection, schedule: Q01DX009 (ip), vehicle: saline",120 % of control
same,T/C,"dose: 0.5 mg/kg/injection, schedule: Q01DX009 (ip), vehicle: saline",153 % of control
same,T/C,"dose: 0.5 mg/kg/injection, schedule: Q03HX024 (ip), vehicle: saline",160 % of control
same,T/C,"dose: 0.62 mg/kg/injection, schedule: Q04DX003 (ip), vehicle: saline",118 % of control and 122 % of control
same,T/C,"dose: 0.75 mg/kg/injection, schedule: Q01DX005 (ip), vehicle: water",119 % of control
same,T/C,"dose: 0.78 mg/kg/injection, schedule: Q01DX009 (ip), vehicle: saline",158 % of control and 161 % of control and 166 % of control
same,T/C,"dose: 1.0 mg/kg/injection, schedule: Q01DX005 (ip), vehicle: saline",152 % of control
same,T/C,"dose: 1.0 mg/kg/injection, schedule: Q01DX009 (ip), vehicle: saline",154 % of control and 164 % of control and 173 % of control
same,T/C,"dose: 1.0 mg/kg/injection, schedule: Q03HX024 (ip), vehicle: saline",204 % of control
same,T/C,"dose: 1.25 mg/kg/injection, schedule: Q04DX003 (ip), vehicle: saline",101 % of control
same,T/C,"dose: 1.5 mg/kg/injection, schedule: Q01DX005 (ip), vehicle: saline",178 % of control
same,T/C,"dose: 1.5 mg/kg/injection, schedule: Q01DX005 (ip), vehicle: water",159 % of control and 166 % of control
same,T/C,"dose: 1.56 mg/kg/injection, schedule: Q01DX009 (ip), vehicle: saline",207 % of control and 208 % of control and 226 % of control
same,T/C,"dose: 1.56 mg/kg/injection, schedule: Q01DX009 (oral), vehicle: saline",114 % of control
same,T/C,"dose: 1.56 mg/kg/injection, schedule: Q04DX003 (ip), vehicle: saline",105 % of control and 111 % of control
same,T/C,"dose: 2.0 mg/kg/injection, schedule: Q01DX005 (ip), vehicle: water",184 % of control and 203 % of control
same,T/C,"dose: 2.0 mg/kg/injection, schedule: Q01DX009 (ip), vehicle: saline",190 % of control and 193 % of control and 229 % of control
same,T/C,"dose: 2.0 mg/kg/injection, schedule: Q03HX024 (ip), vehicle: saline",269 % of control
same,T/C,"dose: 2.0 mg/kg/injection, schedule: Q04DX003 (ip), vehicle: saline",123 % of control
same,T/C,"dose: 2.5 mg/kg/injection, schedule: Q04DX003 (ip), vehicle: saline",110 % of control
same,T/C,"dose: 2.5 mg/kg/injection, schedule: Q06HX012 (ip), vehicle: saline",166 % of control and 190 % of control
same,T/C,"dose: 3.0 mg/kg/injection, schedule: Q01DX005 (ip), vehicle: saline",232 % of control
same,T/C,"dose: 3.0 mg/kg/injection, schedule: Q01DX005 (ip), vehicle: water",173 % of control and 227 % of control and 235 % of control
same,T/C,"dose: 3.12 mg/kg/injection, schedule: Q01DX009 (ip), vehicle: saline",212 % of control and 294 % of control
same,T/C,"dose: 3.12 mg/kg/injection, schedule: Q04DX003 (ip), vehicle: saline",159 % of control
same,T/C,"dose: 3.13 mg/kg/injection, schedule: Q01DX009 (ip), vehicle: saline",272 % of control
same,T/C,"dose: 3.4 mg/kg/injection, schedule: Q01DX009 (ip), vehicle: saline",266 % of control and 335 % of control
same,T/C,"dose: 4.0 mg/kg/injection, schedule: Q01DX005 (ip), vehicle: water",254 % of control and 272 % of control
same,T/C,"dose: 4.0 mg/kg/injection, schedule: Q01DX009 (ip), vehicle: saline",253 % of control and 276 % of control and 281 % of control
same,T/C,"dose: 4.0 mg/kg/injection, schedule: Q04DX003 (ip), vehicle: saline",151 % of control
same,T/C,"dose: 5.0 mg/kg/injection, schedule: Q01DX009 (ip), vehicle: saline",211 % of control and 364 % of control
same,T/C,"dose: 5.0 mg/kg/injection, schedule: Q04DX003 (ip), vehicle: saline",104 % of control
same,T/C,"dose: 5.0 mg/kg/injection, schedule: Q06HX012 (ip), vehicle: saline",226 % of control and 235 % of control
same,T/C,"dose: 6.0 mg/kg/injection, schedule: Q01DX005 (ip), vehicle: saline",195 % of control
same,T/C,"dose: 6.0 mg/kg/injection, schedule: Q01DX005 (ip), vehicle: water",276 % of control and 308 % of control
same,T/C,"dose: 6.25 mg/kg/injection, schedule: Q04DX003 (ip), vehicle: saline",161 % of control
same,T/C,"dose: 7.5 mg/kg/injection, schedule: Q04DX003 (ip), vehicle: saline",168 % of control
same,T/C,"dose: 8.0 mg/kg/injection, schedule: Q01DX009 (ip), vehicle: saline",119 % of control and 209 % of control and 102 % of control
same,T/C,"dose: 8.0 mg/kg/injection, schedule: Q04DX003 (ip), vehicle: saline",170 % of control
same,T/C,"dose: 10.0 mg/kg/injection, schedule: Q06HX012 (ip), vehicle: saline",108 % of control and 109 % of control
same,T/C,"dose: 12.0 mg/kg/injection, schedule: Q01DX005 (ip), vehicle: saline",209 % of control
same,T/C,"dose: 12.0 mg/kg/injection, schedule: Q01DX005 (ip), vehicle: water",90 % of control
same,T/C,"dose: 12.5 mg/kg/injection, schedule: Q01DX009 (oral), vehicle: saline",225 % of control
same,T/C,"dose: 12.5 mg/kg/injection, schedule: Q04DX003 (ip), vehicle: saline",225 % of control
same,T/C,"dose: 15.0 mg/kg/injection, schedule: Q04DX003 (ip), vehicle: saline",224 % of control
same,T/C,"dose: 16.0 mg/kg/injection, schedule: Q04DX003 (ip), vehicle: saline",220 % of control
same,T/C,"dose: 25.0 mg/kg/injection, schedule: Q01DX001 (ip), vehicle: saline",158 % of control
same,T/C,"dose: 25.0 mg/kg/injection, schedule: Q01DX009 (oral), vehicle: saline",121 % of control and 124 % of control
same,T/C,"dose: 25.0 mg/kg/injection, schedule: Q04DX003 (ip), vehicle: saline",120 % of control
same,T/C,"dose: 30.0 mg/kg/injection, schedule: Q04DX003 (ip), vehicle: saline",156 % of control
same,T/C,"dose: 32.0 mg/kg/injection, schedule: Q04DX003 (ip), vehicle: saline",219 % of control
same,T/C,"dose: 50.0 mg/kg/injection, schedule: Q01DX001 (ip), vehicle: saline",173 % of control and 175 % of control
same,T/C,"dose: 60.0 mg/kg/injection, schedule: Q04DX003 (ip), vehicle: saline",110 % of control
